The values that follow come from paper PMC8615847, “The σ1 Receptor and the HINT1 Protein Control α2δ1 Binding to Glutamate NMDA Receptors: Implications in Neuropathic Pain” (Biomolecules, 2021).

Assay [1] concerns the target T1, recombinant histidine triad nucleotide-binding protein 1 (mouse, UniProt P70349 1-126).
T1 construct: also called HINT1; HINT1 protein; source: E. coli BL21 (KRX), purified (GSTrap FF or HaloLink resin, ion exchange)
T1 sequence (looked up): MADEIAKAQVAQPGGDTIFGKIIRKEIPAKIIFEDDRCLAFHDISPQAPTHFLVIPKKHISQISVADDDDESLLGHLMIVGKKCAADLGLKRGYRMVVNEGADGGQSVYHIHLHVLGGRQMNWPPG
Kind of assay: pull-down; HINT1-NR1 C1 complexes exposed to (α2)δ1 in the absence or presence of calcium (Supplementary Figure S8D). The conditions noted are these: both partners purified.

For assay [2], the target named is T2, recombinant sigma 1 receptor (mouse, UniProt O55242 1-223).
T2 construct: sigma 1 receptor, mouse, coding region of AF004927; also called σ1R; σ1Rs; source: E. coli BL21 (KRX), purified (GSTrap FF or HaloLink resin, ion exchange)
Kind of assay: pull-down; sequential: σ1R (100 nM) bound to agarose-NR1 C1, unbound removed, then (α2)δ1 (100 nM) for 30 min at RT; or NR1 C1 (100 nM) added to agarose-(α2)δ1-σ1R; 50 mM Tris-HCl pH 7.4, 0.2% CHAPS, 2.5 mM CaCl2; Western blot. The conditions noted are these: both partners purified. On the technique in general: Immunoblotting shows a protein as a band on a membrane.

B1: cytosolic C0-C1-C2 region of the glutamate NMDAR NR1 subunit (domain or fragment)
chain: not shown
notes: glutamate NMDA receptor NR1 subunit, mouse, cytosolic C0-C1-C2 region, […] of NM_008169; Used attached to agarose as bait and free in solution (100 nM) as prey; also called NR1 C1; NR1 C0-C1-C2; source: E. coli BL21 (KRX), purified (GSTrap FF or HaloLink resin, ion exchange)
For the molecule B1, the binding result in assay [1] and in assay [2] was “binds” in each case.
